Data on 22 compounds can be found in PubChem BioAssay AID2202238 (Ras Initiative Chemistry Research Team, Frederick National …, 2025).

In the assay the target is GTPase KRas (Homo sapiens) (UniProt P01116). In words: Covalent labelling of cysteine mutants by fragments, read by mass spectrometry (AID 2202238). The arrangement: protein at 5 µM with 500 µM competing thiol for 1.5 h. Particulars: KRAS G12D cysteine mutants, disulfide tethering, MALDI-TOF labeling, stronger effect = higher value, fragment at 500 µM.
Chain of UniProt P01116 (P01116 whole entry, looked up, the tested form may be a part): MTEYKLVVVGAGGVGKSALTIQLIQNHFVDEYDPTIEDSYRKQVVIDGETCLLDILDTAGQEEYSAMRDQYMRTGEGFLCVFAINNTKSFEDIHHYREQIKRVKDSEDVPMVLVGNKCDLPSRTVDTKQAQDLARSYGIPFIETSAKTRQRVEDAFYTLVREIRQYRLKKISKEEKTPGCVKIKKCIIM
Where [1] appears, read: measured here: G60C mutant labeling.
Setting [2] is: measured here: G75C mutant labeling.
[3] abbreviates: measured here: H94C mutant labeling.
[4] abbreviates: measured here: I36C mutant labeling.
Where [5] appears, read: measured here: L120C mutant labeling.
The mark [6] stands for this setting: measured here: M67C mutant labeling.
The mark [7] stands for this setting: measured here: M72C mutant labeling.
The mark [8] stands for this setting: measured here: N26C mutant labeling.
Setting [9] is: measured here: N86C mutant labeling.
Setting [10] is: measured here: P121C mutant labeling.
[11] abbreviates: measured here: S122C mutant labeling.
[12] abbreviates: measured here: S136C mutant labeling.

The list shows a part of the results. These are further read-outs of the screen, such as a control signal, another cell line or another target. No call is given for them.

In the case of `CN(C)C(=O)Cn1cccc(C(=O)NCCS)c1=O`, the percent labeling stood at 26.1% under setting [1]; 5.7% under setting [2]; 32.3% under setting [3]; 23.2% under setting [4]; 40.5% under setting [5]; 35.4% under setting [6]. Besides, the percent labeling by setting is: under setting [7], 29.3%; under setting [8], 32.2%; under setting [9], 24.6%; under setting [10], 29%; under setting [11], 33%; under setting [12], 49.8%.
On to `NS(=O)(=O)c1ccc(C(=O)NCCS)cc1`, for which the percent labeling is, setting by setting: under setting [1], 31.1%; under setting [2], 23.6%; under setting [3], 35.2%; under setting [4], 32.6%; under setting [5], 36.1%; under setting [6], 30.7%. For the same compound, the percent labeling under setting [7] was determined as 50.5%; the percent labeling under setting [8] stood at 46.1%; the percent labeling under setting [9] was determined as 29.3%; the percent labeling under setting [10] was found to be 36%; the percent labeling under setting [11] came to 34.1%; the percent labeling under setting [12] amounted to 52.7%.
As for `O=C(CC1NC(=O)N(c2ccc(F)cc2)C1=O)NCCS` (stereo not given), the percent labeling runs as follows: under setting [1], 45.5%; under setting [2], 15.1%; under setting [3], 36.3%; under setting [4], 31%; under setting [5], 35.3%; under setting [6], 34.4%. For the same compound, the percent labeling is, setting by setting: under setting [7], 32.6%; under setting [8], 41.8%; under setting [9], 28.1%; under setting [10], 36%; under setting [11], 37.8%; under setting [12], 33.4%.
As for `CCCN(CC(=O)Nc1ccccc1OC)C(=O)CCS`, the percent labeling under setting [2] came out at 11.2%; the percent labeling under setting [3] worked out at 35.7%; the percent labeling under setting [4] is 30.9%; the percent labeling under setting [5] came to 32.6%; the percent labeling under setting [6] amounted to 34.6%; the percent labeling under setting [7] stood at 36%. The percent labeling worked out at 26.2% under setting [9], 36% under setting [10], 29.7% under setting [11] and 52% under setting [12].
For `Cn1c(C(F)(F)F)nc2cc(C(=O)NCCS)ccc21`, the percent labeling was 15.5% under setting [1]; 8.7% under setting [2]; 16.1% under setting [3]; 14.3% under setting [4]; 18.8% under setting [5]; 14% under setting [6]. The compound also had a percent labeling under setting [7] of 31.3%; a percent labeling under setting [8] of 35%; a percent labeling under setting [9] of 15.1%; a percent labeling under setting [10] of 13.4%; a percent labeling under setting [11] of 12.2%; a percent labeling under setting [12] of 23.7%.
Take `O=C(CCS)Nc1nnc(-c2ccccc2)s1`: the percent labeling reads like this: under setting [2], 8.2%; under setting [3], 7.8%; under setting [4], 19.3%; under setting [5], 9.4%; under setting [6], 9.7%; under setting [7], 48.8%. Besides, the percent labeling turned out to be 3.2% under setting [9], 16.7% under setting [10], 9.4% under setting [11] and 23.2% under setting [12].
As to `O=C(CCS)NCc1ccc(Oc2ccccc2)nc1`, the percent labeling by setting is: under setting [2], 12.2%; under setting [3], 37.8%; under setting [4], 37.2%; under setting [5], 33.3%; under setting [6], 67.1%; under setting [7], 27.4%. The percent labeling by setting is: under setting [9], 30.5%; under setting [10], 29.7%; under setting [11], 28.4%; under setting [12], 45.8%.
As for `O=C(NCCS)c1csc(-c2cnn(-c3ccccc3)n2)n1`, the percent labeling is 14.5% under setting [1]; 13.6% under setting [2]; 8.9% under setting [3]; 5.8% under setting [4]; 6% under setting [5]; 0% under setting [6]. This compound showed a percent labeling under setting [7] of 28.5%; a percent labeling under setting [8] of 18.4%; a percent labeling under setting [9] of 0%; a percent labeling under setting [10] of 0%; a percent labeling under setting [11] of 0%; a percent labeling under setting [12] of 6.4%.
For `Cc1ccc(-n2nc(C)c(C(=O)NCCS)n2)c(C)c1`, the percent labeling runs as follows: under setting [1], 33%; under setting [2], 8.7%; under setting [3], 12.1%; under setting [4], 16.3%; under setting [5], 16.3%; under setting [6], 9%. The percent labeling is, setting by setting: under setting [7], 36.4%; under setting [8], 23%; under setting [9], 12.7%; under setting [10], 19.5%; under setting [11], 11.9%; under setting [12], 33.1%.
As to `CCc1c(C)nn(-c2cccc(C(=O)NCCS)c2)c1C`, the percent labeling under setting [1] was determined as 26.8%; the percent labeling under setting [2] turned out to be 14.7%; the percent labeling under setting [3] is 19.6%; the percent labeling under setting [4] turned out to be 12.7%; the percent labeling under setting [5] worked out at 20.2%; the percent labeling under setting [6] came to 14.7%. Besides, the percent labeling was determined as 39.3% under setting [7]; 34.2% under setting [8]; 9.6% under setting [9]; 15.6% under setting [10]; 12% under setting [11]; 27.3% under setting [12].
Regarding `Cc1nccn1-c1cc(C(=O)NCCS)ccn1`, the percent labeling stood at 39.8% under setting [1]; 15.9% under setting [2]; 35% under setting [3]; 19.7% under setting [4]; 24.9% under setting [5]; 16.1% under setting [6]. Moreover, the percent labeling amounted to 16.9% under setting [7]; 16.8% under setting [8]; 6.1% under setting [9]; 31.4% under setting [10]; 10.7% under setting [11]; 30.6% under setting [12].
In the case of `CN(CCCc1[nH]nc(N)c1C#N)C(=O)CCS`, the percent labeling came out at 10.7% under setting [2]; 32.9% under setting [3]; 44.7% under setting [4]; 42.5% under setting [5]; 41.8% under setting [6]; 31.5% under setting [7]. Moreover, the percent labeling under setting [9] amounted to 39.1%, the percent labeling under setting [10] was 35.6%, the percent labeling under setting [11] turned out to be 38.3% and the percent labeling under setting [12] was determined as 59.4%.
Take `O=C(CCS)N1CC2(CC(C(F)F)=NO2)C1`: the percent labeling runs as follows: under setting [2], 11.8%; under setting [3], 26.6%; under setting [4], 34.5%; under setting [5], 22.6%; under setting [6], 27.7%; under setting [7], 13.5%. The percent labeling by setting is: under setting [9], 12.8%; under setting [10], 33%; under setting [11], 33.3%; under setting [12], 42.4%.
The compound `Cc1nc2[nH]n(C)c(=O)c2c(C)c1CCC(=O)NCCS` returned a percent labeling under setting [1] of 35.4%; a percent labeling under setting [2] of 11.8%; a percent labeling under setting [3] of 26.7%; a percent labeling under setting [4] of 25%; a percent labeling under setting [5] of 27%; a percent labeling under setting [6] of 27%. Further, the percent labeling reads like this: under setting [7], 10%; under setting [8], 30.1%; under setting [9], 21.3%; under setting [10], 25.5%; under setting [11], 22.7%; under setting [12], 29.6%.
In turn, `Cn1nc(C(=O)NCCS)cc1C1CC1` had a percent labeling under setting [1] of 41.2%; a percent labeling under setting [2] of 27.4%; a percent labeling under setting [3] of 41.6%; a percent labeling under setting [4] of 30.7%; a percent labeling under setting [5] of 48.8%; a percent labeling under setting [6] of 37.2%. The percent labeling runs as follows: under setting [7], 49.9%; under setting [8], 43.5%; under setting [9], 32.7%; under setting [10], 33.9%; under setting [11], 37.2%; under setting [12], 54.3%.
With `COc1ccc2[nH]cc(CC(=O)NCCS)c2c1`, the percent labeling by setting is: under setting [1], 32.5%; under setting [2], 15.5%; under setting [3], 21.6%; under setting [4], 8.8%; under setting [5], 30.8%; under setting [6], 21.6%. Also, the percent labeling runs as follows: under setting [7], 30.9%; under setting [8], 25.9%; under setting [9], 11.2%; under setting [10], 17.8%; under setting [11], 14.1%; under setting [12], 27.3%.
With `CN(Cc1ccc(Cl)cc1Oc1ccc(Cl)cc1)C(=O)CCS`, the percent labeling was 22.7% under setting [2]; 33.3% under setting [3]; 28.5% under setting [4]; 24.2% under setting [5]; 17% under setting [6]; 35.8% under setting [7]. The compound also showed a percent labeling under setting [9] of 17.8%, a percent labeling under setting [10] of 21.6%, a percent labeling under setting [11] of 10.2% and a percent labeling under setting [12] of 51.7%.
As for `O=C(NCCS)c1cccnc1-n1cc(Br)cn1`, the percent labeling is, setting by setting: under setting [1], 52.7%; under setting [2], 13.7%; under setting [3], 34.2%; under setting [4], 29.5%; under setting [5], 39.9%; under setting [6], 33.7%. The percent labeling turned out to be 35.7% under setting [7]; 34.6% under setting [8]; 22.1% under setting [9]; 30.5% under setting [10]; 22.9% under setting [11]; 43.8% under setting [12].
As to `O=C(NCCS)c1cnn(C2CCCOC2)c1C(F)(F)F` (stereo not given), the percent labeling by setting is: under setting [1], 37.3%; under setting [2], 16.3%; under setting [3], 35.4%; under setting [4], 24.7%; under setting [5], 31.8%; under setting [6], 33.7%. Also, the percent labeling is, setting by setting: under setting [7], 36.1%; under setting [8], 38.4%; under setting [9], 32.7%; under setting [10], 32.5%; under setting [11], 32.1%; under setting [12], 44.7%.
The compound `O=C(NCCS)c1ccc2[nH]cnc2n1` showed a percent labeling under setting [1] of 44%; a percent labeling under setting [2] of 33.4%; a percent labeling under setting [3] of 45.3%; a percent labeling under setting [4] of 31.9%; a percent labeling under setting [5] of 51%; a percent labeling under setting [6] of 38.2%. The compound further came in with a percent labeling under setting [7] of 62.9%; a percent labeling under setting [8] of 48.9%; a percent labeling under setting [9] of 39.6%; a percent labeling under setting [10] of 34.3%; a percent labeling under setting [11] of 34.8%; a percent labeling under setting [12] of 50.7%.
For the compound `COc1cc(NC(=O)CCS)c(OC)cc1CCNC(C)=O`, the percent labeling was determined as 12.3% under setting [2]; 45.8% under setting [3]; 30% under setting [4]; 32.6% under setting [5]; 33.2% under setting [6]; 26.3% under setting [7]. Also, the percent labeling runs as follows: under setting [9], 18.2%; under setting [10], 27.5%; under setting [11], 31.3%; under setting [12], 70.4%.
Turning to `O=C(CCc1ccccc1N1CCOCC1)NCCS`, the percent labeling by setting is: under setting [1], 43.6%; under setting [2], 13.1%; under setting [3], 34.3%; under setting [4], 23.8%; under setting [5], 29.7%; under setting [6], 37.5%. Also, the percent labeling worked out at 23.7% under setting [7]; 33.6% under setting [8]; 22.7% under setting [9]; 30.3% under setting [10]; 26% under setting [11]; 48.2% under setting [12].
